The supplement of paper PMC8728848
The list shows a part of the results.

Assays:
Assay in all cases: glycan array binding signal (z-score within array); higher = stronger binding
Settings in all cases: glycan notation: IUPAC condensed, linker removed
[1] = target: Gal(b1-3)[Fuc(a1-4)]GlcNAc
How it was run: (§1)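 Arrays were curated from the Consortium for Functional Glycomics database, 3228 in total, and kept only where the protein sequence was available. Binding is expressed as a within-array Z-score. This score was averaged across arrays of the same protein sequence at different concentrations or buffers and across linkers, and negative values can be read as non-binding.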

[2] = target: Gal(b1-3)[Fuc(a1-4)]GlcNAc(b1-2)Man(a1-3)[Gal(b1-3)[Fuc(a1-4)]GlcNAc(b1-2)Man(a1-6)]Man(b1-4)GlcNAc(b1-4)GlcNAc
How it was run: as §1

[3] = target: Gal(b1-3)[Fuc(a1-4)]GlcNAc(b1-2)Man(a1-3)[Gal(b1-3)[Fuc(a1-4)]GlcNAc(b1-2)Man(a1-6)]Man(b1-4)GlcNAc(b1-4)[Fuc(a1-6)]GlcNAc
How it was run: as §1

[4] = target: Gal(b1-3)[Fuc(a1-4)]GlcNAc(b1-3)Gal(b1-3)[Fuc(a1-4)]GlcNAc
How it was run: as §1

[5] = target: Gal(b1-3)[Fuc(a1-4)]GlcNAc(b1-3)Gal(b1-4)GlcNAc
How it was run: as §1

[6] = target: Gal(b1-3)[Fuc(a1-4)]GlcNAc(b1-3)Gal(b1-4)[Fuc(a1-3)]GlcNAc
How it was run: as §1

[7] = target: Gal(b1-3)[GlcNAc(b1-6)]GalNAc
How it was run: as §1

[8] = target: Gal(b1-3)[Neu5Ac(a2-6)]GalNAc
How it was run: as §1

[9] = target: Gal(b1-3)[Neu5Ac(a2-6)]GlcNAc(b1-6)Gal(b1-4)Glc
How it was run: as §1

[10] = target: Gal(b1-3)[Neu5Ac(b2-6)]GalNAc
How it was run: as §1

[11] = target: Gal(b1-4)GalNAc(a1-3)[Fuc(a1-2)]Gal(b1-4)GlcNAc
How it was run: as §1

[12] = target: Gal(b1-4)GalNAc(b1-3)[Fuc(a1-2)]Gal(b1-4)GlcNAc
How it was run: as §1

[13] = target: Gal(b1-4)Glc
How it was run: as §1

[14] = target: Gal(b1-4)Glc6S
How it was run: as §1

[15] = target: Gal(b1-4)GlcNAc
How it was run: as §1

[16] = target: Gal(b1-4)GlcNAc(a1-6)Gal(b1-4)GlcNAc
How it was run: as §1

[17] = target: Gal(b1-4)GlcNAc(b1-2)Man(a1-3)Man(b1-4)GlcNAc(b1-4)GlcNAc
How it was run: as §1

[18] = target: Gal(b1-4)GlcNAc(b1-2)Man(a1-3)[Gal(b1-4)GlcNAc(b1-2)Man(a1-6)]Man(b1-4)GlcNAc(b1-4)GlcNAc
How it was run: as §1

[19] = target: Gal(b1-4)GlcNAc(b1-2)Man(a1-3)[Gal(b1-4)GlcNAc(b1-2)Man(a1-6)]Man(b1-4)GlcNAc(b1-4)[Fuc(a1-6)]GlcNAc
How it was run: as §1

[20] = target: Gal(b1-4)GlcNAc(b1-2)Man(a1-3)[GlcNAc(b1-2)Man(a1-6)]Man(b1-4)GlcNAc(b1-4)GlcNAc
How it was run: as §1

[21] = target: Gal(b1-4)GlcNAc(b1-2)Man(a1-3)[Man(a1-6)]Man(b1-4)GlcNAc(b1-4)GlcNAc
How it was run: as §1

[22] = target: Gal(b1-4)GlcNAc(b1-2)Man(a1-6)Man(b1-4)GlcNAc(b1-4)GlcNAc
How it was run: as §1

[23] = target: Gal(b1-4)GlcNAc(b1-2)Man(a1-6)[GlcNAc(b1-2)Man(a1-3)]Man(b1-4)GlcNAc(b1-4)GlcNAc
How it was run: as §1

[24] = target: Gal(b1-4)GlcNAc(b1-2)Man(a1-6)[Man(a1-3)]Man(b1-4)GlcNAc(b1-4)GlcNAc
How it was run: as §1

[25] = target: Gal(b1-4)GlcNAc(b1-2)[Gal(b1-4)GlcNAc(b1-4)]Man(a1-3)[Gal(b1-4)GlcNAc(b1-2)Man(a1-6)]Man(b1-4)GlcNAc(b1-4)GlcNAc
How it was run: as §1

[26] = target: Gal(b1-4)GlcNAc(b1-2)[Gal(b1-4)GlcNAc(b1-4)]Man(a1-3)[Gal(b1-4)GlcNAc(b1-2)[Gal(b1-4)GlcNAc(b1-6)]Man(a1-6)]Man(b1-4)GlcNAc(b1-4)GlcNAc
How it was run: as §1

[27] = target: Gal(b1-4)GlcNAc(b1-3)Gal(b1-3)GlcNAc
How it was run: as §1

[28] = target: Gal(b1-4)GlcNAc(b1-3)Gal(b1-4)Glc
How it was run: as §1

[29] = target: Gal(b1-4)GlcNAc(b1-3)Gal(b1-4)GlcNAc
How it was run: as §1

[30] = target: Gal(b1-4)GlcNAc(b1-3)Gal(b1-4)GlcNAc(b1-3)Gal(b1-4)GlcNAc
How it was run: as §1

[31] = target: Gal(b1-4)GlcNAc(b1-3)Gal(b1-4)[Fuc(a1-3)]GlcNAc(b1-3)Gal(b1-4)[Fuc(a1-3)]GlcNAc
How it was run: as §1

[32] = target: Gal(b1-4)GlcNAc(b1-3)GalNAc
How it was run: as §1

[33] = target: Gal(b1-4)GlcNAc(b1-3)[Gal(b1-4)GlcNAc(b1-6)]Gal(b1-4)GlcNAc
How it was run: as §1

[34] = target: Gal(b1-4)GlcNAc(b1-3)[Gal(b1-4)GlcNAc(b1-6)]GalNAc
How it was run: as §1

[35] = target: Gal(b1-4)GlcNAc(b1-3)[GlcNAc(b1-6)]Gal(b1-4)GlcNAc
How it was run: as §1

[36] = target: Gal(b1-4)GlcNAc(b1-6)Gal(b1-4)GlcNAc
How it was run: as §1

[37] = target: Gal(b1-4)GlcNAc(b1-6)GalNAc
How it was run: as §1

[38] = target: Gal(b1-4)GlcNAc(b1-6)[Gal(b1-3)]GalNAc
How it was run: as §1

[39] = target: Gal3S(b1-3)GalNAc
How it was run: as §1

[40] = target: Gal3S(b1-3)GlcNAc
How it was run: as §1

[41] = target: Gal3S(b1-3)[Fuc(a1-4)]GlcNAc
How it was run: as §1

[42] = target: Gal3S(b1-4)Glc
How it was run: as §1

[43] = target: Gal3S(b1-4)Glc6S
How it was run: as §1

[44] = target: Gal3S(b1-4)GlcNAc
How it was run: as §1

[45] = target: Gal3S(b1-4)GlcNAc6S
How it was run: as §1

B1: Galatrox (Botrops atrox), P0DM53 (protein)
chain: NNCPQDWLPMNGLCYKIFDELKAWKDAEMFCRKYKPGCHLASIILYGESPEWAEGHSEVWLGLWDKKKDFSWEWTDR
- glycan array binding signal (z-score) [1]: -0.367
- glycan array binding signal (z-score) [2]: -0.101
- glycan array binding signal (z-score) [3]: -0.333
- glycan array binding signal (z-score) [4]: 0.286
- glycan array binding signal (z-score) [5]: -0.253
- glycan array binding signal (z-score) [6]: -0.375
- glycan array binding signal (z-score) [7]: -0.192
- glycan array binding signal (z-score) [8]: 0.985
- glycan array binding signal (z-score) [9]: -0.326
- glycan array binding signal (z-score) [10]: -0.094
- glycan array binding signal (z-score) [11]: 0.067
- glycan array binding signal (z-score) [12]: -0.37
- glycan array binding signal (z-score) [13]: 0.951
- glycan array binding signal (z-score) [14]: -0.022
- glycan array binding signal (z-score) [15]: 1.3
- glycan array binding signal (z-score) [16]: 3.28
- glycan array binding signal (z-score) [17]: 0.267
- glycan array binding signal (z-score) [18]: 1.27
- glycan array binding signal (z-score) [19]: 1.04
- glycan array binding signal (z-score) [20]: 0.697
- glycan array binding signal (z-score) [21]: 0.001
- glycan array binding signal (z-score) [22]: 2.53
- glycan array binding signal (z-score) [23]: 1.11
- glycan array binding signal (z-score) [24]: 1.15
- glycan array binding signal (z-score) [25]: 3.31
- glycan array binding signal (z-score) [26]: 3.13
- glycan array binding signal (z-score) [27]: 1.3
- glycan array binding signal (z-score) [28]: 2.92
- glycan array binding signal (z-score) [29]: 3.16
- glycan array binding signal (z-score) [30]: 3.28
- glycan array binding signal (z-score) [31]: 3.31
- glycan array binding signal (z-score) [32]: 1.31
- glycan array binding signal (z-score) [33]: 4.18
- glycan array binding signal (z-score) [34]: 3.1
- glycan array binding signal (z-score) [35]: 3.11
- glycan array binding signal (z-score) [36]: 2.92
- glycan array binding signal (z-score) [37]: 2.44
- glycan array binding signal (z-score) [38]: 1.77
- glycan array binding signal (z-score) [39]: -0.361
- glycan array binding signal (z-score) [40]: -0.363
- glycan array binding signal (z-score) [41]: -0.356
- glycan array binding signal (z-score) [42]: -0.363
- glycan array binding signal (z-score) [43]: -0.351
- glycan array binding signal (z-score) [44]: -0.368
- glycan array binding signal (z-score) [45]: -0.353
